# Results: PubChem BioAssay AID720709 (National Center for Advancing Translational Sciences (NCATS), 2013)
# Among all 360,000 compounds or so, about 520 (0.14%) were called active. Inconclusive means that the source gave no clear call. Such entries were picked first, then a sample of the others. The call rests on the fitted dose curve; in most records, active means well fitted inhibition curve with a large enough effect; inconclusive means small, poorly fitted or top-dose-only effect; inactive means no such curve, though single readings can be large or run the other way. Potencies of inconclusive entries are left out as doubtful fits.
# Biological target: Rap guanine nucleotide exchange factor 3 (Homo sapiens) (UniProt O95398)
# Sequence of UniProt O95398 (O95398 whole entry, looked up): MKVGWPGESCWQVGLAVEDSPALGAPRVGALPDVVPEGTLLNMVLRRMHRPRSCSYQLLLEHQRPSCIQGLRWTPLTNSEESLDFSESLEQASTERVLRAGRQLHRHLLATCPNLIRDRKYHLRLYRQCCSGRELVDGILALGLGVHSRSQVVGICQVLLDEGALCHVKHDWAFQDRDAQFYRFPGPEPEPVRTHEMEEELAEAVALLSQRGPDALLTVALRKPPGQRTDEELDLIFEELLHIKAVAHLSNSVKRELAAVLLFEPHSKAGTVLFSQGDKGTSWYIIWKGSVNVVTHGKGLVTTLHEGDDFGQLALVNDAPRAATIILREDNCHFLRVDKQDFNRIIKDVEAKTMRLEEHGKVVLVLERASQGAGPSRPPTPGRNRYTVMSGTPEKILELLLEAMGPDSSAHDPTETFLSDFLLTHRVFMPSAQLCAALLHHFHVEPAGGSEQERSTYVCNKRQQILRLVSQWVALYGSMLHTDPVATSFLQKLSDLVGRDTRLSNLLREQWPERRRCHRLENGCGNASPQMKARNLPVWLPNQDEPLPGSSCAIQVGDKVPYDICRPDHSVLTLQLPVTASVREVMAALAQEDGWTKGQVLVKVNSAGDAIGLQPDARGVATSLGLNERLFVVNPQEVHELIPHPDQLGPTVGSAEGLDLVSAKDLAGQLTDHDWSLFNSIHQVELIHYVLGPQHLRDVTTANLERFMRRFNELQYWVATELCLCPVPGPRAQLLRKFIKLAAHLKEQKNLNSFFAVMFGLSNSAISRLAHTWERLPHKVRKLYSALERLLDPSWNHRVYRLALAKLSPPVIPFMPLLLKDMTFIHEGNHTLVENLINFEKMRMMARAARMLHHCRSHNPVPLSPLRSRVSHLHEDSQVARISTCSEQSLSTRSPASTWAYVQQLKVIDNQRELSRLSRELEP
# Experiment: qHTS for Antagonist of cAMP-regulated guanine nucleotide exchange factor 3 (EPAC1): primary screen; further: nearly all actives have a fitted effect of over 50% in size;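 on activity change, negative = inhibition: plate controls were vehicle for no effect and positive control for full effect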
# Conditions: EPAC1 GEF assay, Rap1b-BODIPY-GDP exchange fluorescence; activity change, negative = inhibition: at 115 µM (top of the series)
# Potency means the concentration at half of the fitted maximal effect; tags describe the fitted curve by direction and shape.
SMILES,Potency,"activity change, negative = inhibition"
COc1cc(C(C)=O)ccc1COc1ccc(C(=O)OCC(=O)NC(C)(C)C)cc1OC,"inconclusive [inhibitor, single point]",
Cc1ccc(CSc2nnc(SCC(=O)N/N=C/c3c[nH]c4ccccc34)s2)cc1,"inconclusive [inhibitor, partial curve]",
CCN(CCCNC(=O)CNC(=O)c1nn(-c2ccc(OC)c(OC)c2)c(=O)c2ccccc12)c1ccccc1,"inconclusive [inhibitor, single point]",
COc1cc(C(=O)N(C)CCOc2ccccc2)ccc1OCC(=O)Nc1cccc(C(F)(F)F)c1,"inconclusive [inhibitor, full curve, poor fit]",
CC(C(=O)Nc1cccnc1)N1C(=O)c2ccccc2C1=O (stereo not drawn),inactive,
COc1ccc(NC(=O)C2CCCN(S(=O)(=O)c3cccc4cccnc34)C2)cc1 (stereo not drawn),"inconclusive [inhibitor, single point]",
COc1cc(N)c2ncccc2c1Cl,"inconclusive [inhibitor, single point]",
O=C(Cn1cc2c(n1)CCCCC2)NCCN1CCOCC1,"inconclusive [inhibitor, full curve]",
COC(=O)C1=C(C)NC(C)=C(C(=O)OC)C1C(=O)OCC(=O)N1CCCCC1C (stereo not drawn),"inconclusive [inhibitor, single point]",
CCC(C)n1c(SCC(=O)Nc2ccc3[nH]c(=O)[nH]c3c2)nc2ccccc2c1=O (stereo not drawn),"inconclusive [inhibitor, partial curve]",
O=C(Nc1ccc(F)cc1)c1ccc2nsnc2c1,"inconclusive [inhibitor, full curve, poor fit]",
COc1ccc(N2C(=O)c3cccc4c(N(C)CCO)ccc(c34)C2=O)cc1,inactive,
Cc1ccc(NC(=O)C2=C(c3ccccc3)S(=O)(=O)CCS2(=O)=O)cc1,"inconclusive [inhibitor, partial curve]",
CC(C)(C)OC[C@H](NC(=O)c1[nH]cnc1C(=O)Nc1ccccc1F)C(=O)OC(C)(C)C,"inconclusive [inhibitor, full curve, poor fit]",
COCOc1ccc(/C=C/C(=O)c2c(OCOC)cc(OCOC)c(CC=C(C)C)c2O)cc1OCOC,"inconclusive [inhibitor, single point]",
Cc1cc(N2CCOCC2)n2ncc(-c3ccccc3Cl)c2n1,inactive,
COc1cccc(NC(=S)N(CCCN2CCOCC2)C(C)c2cc3cccc(OC)c3o2)c1 (stereo not drawn),"inconclusive [inhibitor, partial curve, poor fit]",
CC(C)(C)c1ccc(C(=O)N/C(=C/c2cccs2)C(=O)NCc2ccco2)cc1,"inconclusive [inhibitor, single point]",
O=S(=O)(c1ccc(Cl)cc1)N1CCSC1c1ccco1 (stereo not drawn),"inconclusive [inhibitor, full curve, poor fit]",
Cn1c(CC(=O)NNC(=O)c2cncc(Br)c2)nc2ccccc21,inactive,
COc1cc(CN2CCC(CO)(Cc3cccc(C(F)(F)F)c3)CC2)ccc1F,inactive,

SMILES,Potency,"activity change, negative = inhibition"
Cc1ccc(C(=O)NCc2ccco2)cc1,inactive,
CC(=O)Nc1ccc(SC[C@H](CC(C)C)N2CCN(CC(C)C)CCC2=O)cc1,"inconclusive [inhibitor, full curve, poor fit]",
O=C(Nc1ccc(OCC(=O)N2CCOCC2)cc1)Nc1cccc(Cl)c1,inactive,
O=C(c1ccc(NS(=O)(=O)c2ccc3[nH]c(=O)[nH]c3c2)cc1)N1CCN(c2ccccc2O)CC1,inactive,
C=CCSC1=NC(=O)/C(=C/c2cccs2)S1,"inconclusive [inhibitor, single point]",
CCN(c1cccc(C)c1)S(=O)(=O)c1cc2c3c(c1)CCC(=O)N3CCC2,"inconclusive [inhibitor, partial curve]",
O=C(CCSc1ccc(Cl)cc1)N1CCCCCC1,inactive,
Cc1cccc(NS(=O)(=O)c2ccc3c(c2)NC(=O)CC(=O)N3)c1,"inconclusive [inhibitor, single point]",
O=C(O)CN1C(=O)/C(=C\c2cc([N+](=O)[O-])ccc2OCc2ccccc2Cl)SC1=S,"inconclusive [inhibitor, partial curve, poor fit]",
Cc1ccc(C(O)c2ncc(-c3cccc(C(F)(F)F)c3)[nH]2)cc1F (stereo not drawn),"inconclusive [inhibitor, partial curve]",
Cc1ccc(NP(=O)(c2ccc(N(C)C)cc2NC(=O)c2cccs2)N2CCOCC2)cc1 (stereo not drawn),"inconclusive [inhibitor, full curve]",
CCCc1nc2sc3ccccc3c(=O)c2c(=O)n1Cc1ccc(OC)cc1,inactive,
COc1ccc(C(=O)C2CCCN(C(=O)C3=CCCC3)C2)cc1OC (stereo not drawn),"inconclusive [inhibitor, single point]",
C=CCOc1ccc(/C=C2\SC(=S)N(NS(=O)(=O)c3ccc(C)cc3)C2=O)cc1,active: 50.1 µM,
Cc1cccc(N2CCN(S(=O)(=O)c3ccc4c(c3)C(C)(C)C(=O)N4C)CC2C)c1 (stereo not drawn),"inconclusive [inhibitor, full curve, poor fit]",
CC(CSc1n[nH]c(=S)s1)c1ccccc1 (stereo not drawn),"inconclusive [inhibitor, full curve, poor fit]",
CCCc1nc(N2CCN(C)CC2)c2sc(=S)n(-c3ccccc3)c2n1,"inconclusive [inhibitor, partial curve]",
Cc1cc(C)n2c(NC3CCCC3)c(-c3ccc(F)cc3)nc2n1,"inconclusive [inhibitor, single point]",
Cc1cc2ccccc2n1CCNC(=O)C1CCCCC1,"inconclusive [inhibitor, single point]",
O=S(=O)(c1ccc(-c2nc3ccccc3s2)cc1)N1CCCC1,inactive,
Cc1cc2ccccc2n1CCNC(=O)c1cccs1,inactive,

SMILES,Potency,"activity change, negative = inhibition"
CCn1c(SCC(=O)NC2CCCCC2)nnc1-c1ccccc1F,"inconclusive [inhibitor, partial curve]",
Cc1ccc(N(C)S(=O)(=O)c2nnc(NC(=O)c3ccco3)s2)cc1,"inconclusive [inhibitor, full curve, poor fit]",
CC(=O)C1CCC2C3CCC4CC(=O)CCC4(C)C3C(O)CC12C (stereo not drawn),,inconclusive: -3.5% [inhibitor]
CC1CC(C)CN(CCC(=O)Nc2ccc(Br)cc2)C1 (stereo not drawn),"inconclusive [inhibitor, single point]",
CCc1ccc2nc(SCC(=O)Nc3nnc(C)s3)c(C)cc2c1,"inconclusive [inhibitor, partial curve]",
CCOC(=O)C1(CCOc2ccccc2)CCN(C(=O)c2ccc(-n3cccn3)cc2)CC1,"inconclusive [inhibitor, partial curve]",
COc1ccc2c(C(=O)NCc3ccc4c(c3)OCO4)c(-c3ccc(S(C)(=O)=O)cc3)sc2c1,"inconclusive [inhibitor, full curve]",
COc1ccc(N(C(=O)c2ccco2)C(C(=O)NC2CCCC2)c2cccs2)cc1 (stereo not drawn),"inconclusive [inhibitor, single point]",
CCCn1c(SCC(=O)c2c(N)n(C3CC3)c(=O)[nH]c2=O)nnc1-c1ccncc1,"inconclusive [inhibitor, partial curve]",
CCOC(=O)CC1C(=O)NCCN1Cc1cccc(OC)c1 (stereo not drawn),,inconclusive: -7.6% [inhibitor]
COc1cc(-c2cc(C(=O)NCCc3ccc(S(N)(=O)=O)cc3)c3ccccc3n2)cc(OC)c1OC,"inconclusive [inhibitor, full curve]",
COc1ccc(CCn2c(NN=C(C)C)nc3c2c(=O)[nH]c(=O)n3C)cc1,"inconclusive [inhibitor, single point]",
CCOC(=O)c1c(N)sc(C(O)(C(F)(F)F)C(F)(F)F)c1-c1ccc(Cl)cc1,"inconclusive [inhibitor, partial curve]",
O=C(CN1C(=O)/C(=C\c2ccccc2F)SC1=S)Nc1nc2ccccc2s1,"inconclusive [inhibitor, single point]",
N#C/C(=C\c1ccc(OCc2ccc(Br)cc2)cc1)C(=O)Nc1cccc(C(=O)O)c1,"inconclusive [inhibitor, single point]",
COc1cc(C[C@@H](C)[C@@H](C)Cc2ccc(O)c(OC)c2)ccc1O,"inconclusive [inhibitor, full curve]",
COc1ccc(N2CCN(C(=O)c3ccc(Cn4c(=S)[nH]c5ccc(N6CCOCC6)cc5c4=O)cc3)CC2)cc1,"inconclusive [inhibitor, full curve, poor fit]",
CC(=O)C1=C(c2ccccc2)NC(=O)NC1c1ccc2c(c1)OCO2 (stereo not drawn),"inconclusive [inhibitor, full curve, poor fit]",
O=C(CNC(=O)/C(=C\c1ccc(Br)cc1)NC(=O)c1ccccc1)OCc1ccccc1,"inconclusive [inhibitor, full curve]",
COCC(C)NC(=O)c1cc(OC)cc(OC)c1 (stereo not drawn),"inconclusive [inhibitor, full curve, poor fit]",
COc1ccc(CC(=O)Nc2c(C(=O)N3CCN(c4ccccc4OC)CC3)oc3ccccc23)cc1OC,"inconclusive [inhibitor, partial curve, poor fit]",
